The values below come from PubChem BioAssay AID485344 (National Center for Advancing Translational Sciences (NCATS), 2010).

Screen size: about 340,000 compounds; about 6,900 (2%) were called active. No stated cut-off is given here; in the data, active means inhibition above about 30%; inactive means below that, where a call was filed. The entries are a selection whose mix differs from that of the whole data set. Entries without a call were filed so in the source.

The test addresses D(2) dopamine receptor (Homo sapiens) (UniProt P14416). Description: HTS Assay for Allosteric Antagonists of the Human D2 Dopamine Receptor: Primary Screen for Antagonists. Further: 0% is about no effect. The conditions noted are these: HEK293 TREx D2 cells, calcium flux, dopamine EC80; at 10 µM; stronger effect = higher value. The gist of the method: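 In this primary screen, negative modulation is detected by tracking calcium flux after an EC80 dopamine challenge in inducible HEK293 T-REx D2 cells preexposed to test compound for 180 s.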
UniProt P14416, sequence (P14416 whole entry, looked up): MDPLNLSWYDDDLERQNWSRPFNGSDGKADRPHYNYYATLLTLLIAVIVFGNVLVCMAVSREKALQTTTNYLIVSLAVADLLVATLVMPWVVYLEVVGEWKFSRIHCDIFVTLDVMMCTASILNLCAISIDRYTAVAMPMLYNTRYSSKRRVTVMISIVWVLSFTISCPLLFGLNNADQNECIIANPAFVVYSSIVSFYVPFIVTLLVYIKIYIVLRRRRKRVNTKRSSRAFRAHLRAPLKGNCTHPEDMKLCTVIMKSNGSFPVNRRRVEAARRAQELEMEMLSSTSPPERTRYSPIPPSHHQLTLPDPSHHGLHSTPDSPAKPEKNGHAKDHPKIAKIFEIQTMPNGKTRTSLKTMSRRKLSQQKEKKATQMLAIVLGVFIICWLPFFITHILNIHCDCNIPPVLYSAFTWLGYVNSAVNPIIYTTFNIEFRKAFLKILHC
Background: A change in cytosolic calcium serves as a functional read-out for many receptors and channels.
As a reminder, the inhibition is the change of the read-out against control, counted positive when it falls. Take `O=C(CSc1nccn1Cc1ccco1)Nc1ccc(OC(F)(F)F)cc1`: the inhibition was -2.21%.

Take `CCN1CCC(N(Cc2ccc(F)cc2)C(=O)Nc2ccc(C)c(F)c2)CC1`: the inhibition is -11.3%.

For the compound `CCOc1ccc(NC(=O)Cn2cc(C(=O)C3CC3)c3ccccc32)cc1`, the inhibition was -14.6%.

Consider `CC1=C(C(=O)NCc2cccc(Cl)c2)C2(CCCCCC2)OC1=O`, for which the inhibition was determined as 26.3%.

In the case of `CCOC(=O)c1c(C)oc2nc(C)nc(NCCc3ccc(OCC)cc3)c12`, the inhibition was found to be 0.875%.

Turning to `O=c1c2ccccc2[nH]c(=S)n1CCN1CCN(Cc2ccccc2)CC1`, the inhibition was active: 51.7%.

As to `CCC(C)NC(=O)Cn1c(=O)n(-c2cc(OC)cc(OC)c2)c(=O)c2ccccc21` (stereo not given), the inhibition came to 4.23%.

As for `CC(=O)Nc1ccc(S(=O)(=O)N2CCC(n3c(C)nc4cccnc43)CC2)cc1`, the inhibition came out at 7.55%.

On to `O=C(Cn1cccc1C(=O)c1ccccc1)NCCN1CCOCC1`, for which the inhibition is active: 54.9%.

Consider `CCOC(=O)c1ccc(NC(=O)CCc2c(C)nc3cc(-c4ccc(OC)cc4OC)nn3c2C)cc1`, for which the inhibition was found to be 7.46%.

As to `COc1cccc(N2CCN(Cc3ccsc3)CC2)c1`, the inhibition was active: 48%.

Turning to `CC(C)Oc1ccc(C(=O)N2CCC(c3nc4ccccc4s3)CC2)cc1`, the inhibition turned out to be 0.559%.

On to `Cc1ccc(SCCNC(=O)CN(c2cccc(C)c2C)S(C)(=O)=O)cc1`, for which the inhibition was determined as 20.5%.

`COc1cc(C(=O)Nc2ccc(-c3nc4cc(C)c(C)cc4o3)cc2)cc(OC)c1OC`: the inhibition was 5.24%.

For `COc1ccc(NC(=O)CSc2nncn3c2cc2occc23)c(OC)c1`, the inhibition was -1.03%.

Take `COc1ccc(C(=O)NCC(=O)OCc2cc(=O)n3nc(C4CCCCC4)sc3n2)cc1`: the inhibition was found to be 1.7%.

As to `Cc1ccccc1-c1nc(CS(=O)(=O)CC(=O)NCCCN2CCN(C)CC2)c(C)o1`, the inhibition was 10.2%.

`Cc1c2cnn(-c3ccccc3)c(=O)c2c(C)n1CC(=O)Nc1ccccc1Br`: the inhibition was -6.69%.

As to `O=C(Nc1nnc(S(=O)(=O)N2CCCc3ccccc32)s1)c1ccc(Cl)cc1`, the inhibition turned out to be 19%.

With `CCN(C(=O)CSc1nc(-c2ccc(C(C)C)cc2)no1)c1ccccc1`, the inhibition is 5.26%.

`COc1ccc2c(c1)CC(C(=O)Nc1ccc(Br)c(C)c1)CO2` (stereo not given): the inhibition is -6.03%.

In the case of `Cc1ccc(N2CCN(C(=O)c3cn(C)c4ccc(S(=O)(=O)N5CCC(C)CC5)cc4c3=O)CC2C)cc1` (stereo not given), the inhibition was -9.69%.

As for `O=C(Cn1c(=O)n(Cc2ccco2)c(=O)c2ccccc21)Nc1cccc(F)c1`, the inhibition stood at 4.82%.

As to `CC(=O)c1ccc(NC(=O)c2cnc(N3CCCC3)nc2C)cc1`, the inhibition was -7.56%.

Take `COc1ccc(NC(=O)Cn2c(=O)n(Cc3ccco3)c(=O)c3sc4ccccc4c32)cc1OC`: the inhibition was 5.61%.

For `Cc1ccc(-n2c(-c3ccc(Br)cc3)nc3c(cnn3-c3ccccc3)c2=O)cc1`, the inhibition was found to be 5.87%.

Regarding `CCc1ccccc1NC(=O)Cn1c(=O)n(-c2ccccc2)c(=O)c2oc3ccccc3c21`, the inhibition was -14.5%.

As for `Cc1cccc(C(=O)Nc2nc(-c3nnn(-c4cc(C)ccc4C)c3C)ns2)c1`, the inhibition is -1.96%.

For the compound `COc1ccccc1-c1cc(C(F)(F)F)nc(S(=O)(=O)CCCC(=O)Nc2ccc(F)cc2F)n1`, the inhibition was -3.31%.

Regarding `COC(=O)C1CCN(Cc2nnc(-c3ccccc3)o2)CC1`, the inhibition is active: 65.6%.

In the case of `COc1ccc(-c2ccc(CCC(=O)O)n2-c2cc(Cl)ccc2O)cc1`, the inhibition was 9.67%.

Turning to `O=C(Cn1c(=O)n(Cc2nc(-c3ccccc3)no2)c(=O)c2cc3c(cc21)OCO3)Nc1cccc(C(F)(F)F)c1`, the inhibition came to 3.87%.

Turning to `Nc1nnc(CC(=O)N/N=C/c2cccc(OCCOc3ccccc3)c2)s1`, the inhibition was active: 30.5%.

With `COc1cccc(C2CC(=O)Nc3c2c(=O)n(C)c2nc4ccccc4n32)c1` (stereo not given), the inhibition is -4.45%.

As for `CCOC(=O)C1CCN(C(=O)Cn2ncc3c([nH]c4ccccc43)c2=O)CC1`, the inhibition stood at 0.55%.

As for `CCOC(=O)c1c(C)[nH]c(C)c1S(=O)(=O)N(C)CC(=O)Nc1cccc(C(F)(F)F)c1`, the inhibition turned out to be 0.341%.

Regarding `O=C(c1ccc(N2C(=O)C3CC=C(Cl)CC3C2=O)cc1)N1CCCCC1` (stereo not given), the inhibition is active: 37.7%.

Regarding `Cc1cccc(CNC(=O)Cn2ccc3cc(S(=O)(=O)N4CCC(C)CC4)ccc32)c1`, the inhibition was 1.42%.

In the case of `Cc1cc(C)cc(NC(=O)Cn2c(=O)n(Cc3ccc4c(c3)OCO4)c(=O)c3oc4ccccc4c32)c1`, the inhibition is -5.58%.

With `NS(=O)(=O)c1ccc(NC(=S)Nc2ccn(Cc3cccc4ccccc34)n2)cc1`, the inhibition is active: 42.3%.

Consider `Cc1cccc(NC(=O)c2oc3ccc(S(=O)(=O)N4CCC5(CC4)OCCO5)cc3c2C)c1C`, for which the inhibition was determined as 10.8%.

In the case of `Cc1ccc(Cl)cc1NC(=O)COC(=O)c1ccc(N2CCCC2)c([N+](=O)[O-])c1`, the inhibition is active: 57.2%.

Turning to `COc1ccc(-n2nc(C(=O)Nc3cccc(C)n3)c3c4ccccc4n(C)c3c2=O)cc1`, the inhibition was -2.14%.

In the case of `Cc1ccc2c(c1)-c1ncc(C(=O)c3cc(Br)ccc3O)cc1CO2`, the inhibition amounted to 15.8%.

Consider `CC(=O)c1ccc(N2CCN(c3ncnc4c3cnn4C)CC2)cc1`, for which the inhibition is -15.2%.

Consider `CC1CCN(S(=O)(=O)c2ccc3c(c2)N(CC(=O)NCCCN2CCCC(C)C2)C(=O)CS3)CC1` (stereo not given), for which the inhibition is 5.96%.

Turning to `Cc1cccc(CNC(=O)c2ccc(NC(=O)N3CCSc4ncccc43)cc2)c1`, the inhibition is -7.97%.

In the case of `CCOc1ccc(NC(=O)C(C)Sc2nc3ncccc3o2)cc1` (stereo not given), the inhibition was determined as 3.61%.

`CCOC(=O)c1cc(S(=O)(=O)Nc2ccccc2OCC)[nH]n1`: the inhibition is -6.81%.

On to `Cc1ccccc1CSc1nc2c([nH]c3ccccc32)c(=O)n1C`, for which the inhibition was 5.42%.

Take `COc1ccc(-n2c(=O)c3c4c(sc3n3c(SC(C)C)nnc23)COC(C(C)C)C4)cc1` (stereo not given): the inhibition is 13.5%.

Consider `CCCc1cc(=O)[nH]c(SCc2nc(-c3ccccc3F)no2)n1`, for which the inhibition is -21.3%.

`CC(Oc1cc2oc(=O)cc(-c3ccccc3)c2cc1Cl)C(=O)NCC1CCC(C(=O)O)CC1` (stereo not given): the inhibition was active: 43.2%.

For the compound `Cc1ccc(-n2ncc(C(=O)NCCN3CCc4ccccc4C3)c2C2CCNCC2)cc1C`, the inhibition was 5.37%.

For `COc1ccc(NC(=O)c2cc(=O)c3ccc(C)c(C)c3o2)cc1Cl`, the inhibition came out at 13%.

`COc1ccc(C)cc1NC(=O)CN1C(=O)COc2ccc(S(=O)(=O)NC3CCCC3)cc21`: the inhibition was -3.74%.

On to `CCOc1ccc(-c2csc(-c3c(N)c(C(=O)c4ccc5c(c4)OCO5)n4ccccc34)n2)cc1`, for which the inhibition worked out at 14.1%.

Take `O=C(CSc1ccc(Br)cc1)NCC(c1ccco1)N1CCCCC1` (stereo not given): the inhibition was active: 38.9%.

Consider `CN(C)CCNC(=O)c1ccc(Cn2c(=O)c3cccn3c3cccnc32)cc1`, for which the inhibition came out at 2.56%.

For the compound `Cc1ccc(C2C=C(c3ccc(Cl)cc3)Nc3nc(NC(=O)c4ccco4)nn32)cc1` (stereo not given), the inhibition was 5.21%.

`CNc1snc(C)c1C(=O)OCC(=O)N(C)Cc1ccccc1`: the inhibition is active: 35.1%.

As for `CCc1nn(Cc2c(C)cc(C)cc2C)c(=O)c2cc3cc(C)ccc3n12`, the inhibition amounted to 8%.

Consider `O=C(Nc1ccc(F)cc1F)N1CCN(c2ccc(Cl)c(Cl)c2)CC1`, for which the inhibition is 1.83%.

In the case of `CCCC12CN3CC(CCC)(CN(C1)C3c1c(C)[nH]c(=O)[nH]c1=O)C2=O` (stereo not given), the inhibition is -1.05%.

On to `Cn1nnnc1SCCCNCc1cc(Cl)ccc1OCc1ccccc1F`, for which the inhibition was -20.2%.

`CCCCCc1nn2cc(-c3ccccc3)nc2s1`: the inhibition turned out to be 13.5%.

`Cc1cccc(N2CCN(S(=O)(=O)c3c(C(=O)N4CCC(C)CC4)c(C)n(C)c3C)CC2)c1C`: the inhibition turned out to be 8.64%.

As for `COC(=O)c1ccc(NC(=O)CC2C(=O)N(c3ccccc3)C(=O)N2Cc2ccco2)cc1` (stereo not given), the inhibition was -19.2%.

For the compound `Cc1ccc(NC(=O)Cn2cnc3sc(C)c(S(=O)(=O)N4CCN(c5ncccn5)CC4)c3c2=O)cc1F`, the inhibition amounted to 12.8%.

As to `Cn1c(CN2CCCCC2)nc2cc(NC(=O)c3ccccc3)ccc21`, the inhibition was active: 36.1%.

As to `CCOc1ccc(C(c2c(O)cc(C)n(Cc3ccco3)c2=O)N2CCN(c3ccccc3)CC2)cc1` (stereo not given), the inhibition was -21.1%.

On to `Cc1cccc(CNC(=O)C2CCN(S(=O)(=O)c3ccc4c(c3)CCCN4C(=O)C3CCC3)CC2)c1`, for which the inhibition is 2.16%.

Regarding `Cc1ccc(C(CC(=O)Nc2ccc(F)c(Cl)c2)N2Cc3ccccc3C2=O)cc1` (stereo not given), the inhibition is 5.32%.

`COc1cccc(CNCCSc2nnnn2C)c1OCc1ccc(F)cc1`: the inhibition is -0.743%.

With `CC(C)c1ccc(NC(=O)CCn2c(=O)c3cccn3c3ccccc32)cc1`, the inhibition is -8.74%.

For `COc1cc(C(=O)Nc2nonc2-c2ccc(Cl)cc2)cc(OC)c1OC`, the inhibition is 17.5%.

Take `Cc1nc2sccn2c(=O)c1S(=O)(=O)Nc1ccc(N2CCN(C(=O)C(C)C)CC2)cc1`: the inhibition is 23.4%.

For `CCOC(=O)c1ccn(-c2nc(-c3cccc(OC)c3)cc(C(F)(F)F)n2)n1`, the inhibition was -18.6%.

Take `Cc1ccc(N2CC(NC(=O)C3CC3)CC2=O)cc1C` (stereo not given): the inhibition was -23.6%.

Consider `CCOC(=O)c1[nH]c(C)c(CCC(=O)Nc2ccc(Br)c(C)c2)c1C`, for which the inhibition stood at 7.46%.

In the case of `CC1CN(C(=O)CCC(=O)NCc2ccccc2)c2cc(Cl)ccc2O1` (stereo not given), the inhibition turned out to be 13.4%.

`CC(C)(C)NC(=O)c1ccc2nc(CCc3ccccc3)oc2c1`: the inhibition turned out to be 4.51%.

Consider `Cc1ccc(Cl)cc1NC(=O)Cn1ncc2c(C)n(Cc3ccccc3F)c(C)c2c1=O`, for which the inhibition is -7.33%.

In the case of `COc1ccc(-c2nc(-c3ccccc3)c(-c3ccc(F)cc3)[nH]2)c(OC)c1C`, the inhibition is -3.48%.

Regarding `O=S(=O)(NCCc1csc2nc(-c3ccc(F)cc3)nn12)c1ccc(Oc2ccccc2)cc1`, the inhibition came to 2.89%.

Regarding `CCOc1ccc(CCNC(=O)c2ccc3c(c2)sc2nc(-c4ccc(F)cc4)cn23)cc1OCC`, the inhibition was -8.31%.

As to `CCC(C)NC(=O)Cn1c(-c2cccs2)cc2cc(Cl)ccc21` (stereo not given), the inhibition turned out to be 2.96%.

In the case of `CC1CC(C)CN(CCOCCSc2ccc(Cl)cc2)C1` (stereo not given), the inhibition was active: 64.7%.

For `Cc1ccc(CN(C(=O)c2ccccc2[N+](=O)[O-])c2ccccn2)cc1`, the inhibition was -11.6%.

In the case of `Cc1cc(N2CCC(C(=O)NCCC(C)C)CC2)n2nc(C)c(-c3ccc(Cl)cc3)c2n1`, the inhibition was -12.9%.

For `Cc1ccc(-c2nc3c4ccccc4n(CC(=O)N4CCN(c5ccc(F)cc5)CC4)c(=O)n3n2)cc1`, the inhibition was found to be 0.31%.

With `Cc1cc(C)cc(Nc2cc(C)nc3nc(-c4ccco4)nn23)c1`, the inhibition was -27.7%.

Turning to `O=C(COC(=O)c1ccc(Sc2ccccc2)c([N+](=O)[O-])c1)NC1CCS(=O)(=O)C1` (stereo not given), the inhibition is active: 32.2%.

`CSc1cccc(NC(=O)CN2C(=O)COc3ccc(S(=O)(=O)N4CCC(C)CC4)cc32)c1`: the inhibition is -7.25%.

With `Cc1ccccc1CNC(=O)c1ccc2[nH]c(C)c(C)c2c1`, the inhibition came out at 5.01%.
